In PubChem BioAssay AID493208 (National Center for Advancing Translational Sciences (NCATS), 2011):
About 340 (0.77%) of roughly 44,000 compounds were called active. Inconclusive results (about 5%) are left out. Calls follow the shape of the dose curve; as a rule, active = well fitted inhibition curve with a large enough effect; inconclusive = small, poorly fitted or top-dose-only effect; inactive = flat fitted curve, though single readings scatter. The list shows a part of the results.

Assay: Acumen qHTS Assay for Inhibitors of the mTORC1 Signaling Pathway in MEF (Tsc2-/-, p53-/-) Cells: Sytravon;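 also: plate controls were DMSO for no effect and rapamycin for full effect; nearly all actives have a fitted effect of over 50% in size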
Details: phospho-rpS6 immunofluorescence/PI, 24 h; series mostly up to 38.3 µM; activity change, negative = inhibition: at the top concentration
Procedure, shortened: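 Tsc2-/-, p53-/- mouse embryonic fibroblasts (empty-vector line) exposed to compound 24 hrs at 37 C, fixed, immunostained for phospho-rpS6 and counterstained with propidium iodide. Acumen laser scanning gives % positive cells from Alexa 488/PI ratio, thresholded using 7.5 nM rapamycin; PI count gives viability.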

Activity change, negative = inhibition, inactive:
COc1ccccc1NC(=O)Cn1c(=O)n(Cc2ccccc2)c(=O)c2c1c1cc(C)ccc1n2C 0.258%, Cc1ccsc1CN1CCc2nc(Nc3ccccc3)ncc2C1 2.15%, CC(NC(=O)CSc1n[nH]c(-c2ccccc2Cl)n1)c1nc2ccccc2[nH]1 (stereo not drawn) -11.7%, CCNc1nc(NCc2ccc(F)cc2)c2cnn(C)c2n1 6.65%, CC1=C(C(=O)Nc2cccc(Cl)c2C)C2(CCCCCC2)OC1=O -11.5%, CC1CCN(S(=O)(=O)c2ccc3c(c2)CCN3)CC1 0%, CCc1ccc(S(=O)(=O)c2nnn3c2nc(Nc2cc(OC)ccc2OC)c2sccc23)cc1 3.03%, COc1ccccc1Nc1sc(C(=O)c2ccc(C)cc2C)c(N)c1S(=O)(=O)c1ccccc1 -11%, Cc1c(C(=O)Nc2nc(-c3ccc(F)cc3)ns2)oc2ccc(Cl)cc12 -0.138%, Cc1ccc(CCNC(=O)CS(=O)Cc2nc(-c3ccccc3Cl)oc2C)cc1 (stereo not drawn) 0.968%, O=C(Cc1ccccc1)Nc1sc2c(c1C(=O)Nc1ccc(Br)cc1)CCC2 9.61%, Cc1ccc2oc(C(=O)Nc3cccc(Cl)c3)cc(=O)c2c1 -0.358%, COc1ccccc1C(=O)Nc1ccccc1OCc1cc(=O)n2ccccc2n1 -2.94%, COc1cccc(N2CC(NC(=O)c3ccc(S(=O)(=O)N4CCOCC4)cc3)CC2=O)c1 (stereo not drawn) 0.215%, O=C(NCCc1ccccc1)c1nc(-c2ccc(Cl)cc2)n2c1CCCCC2 -4.21%, COc1ccc(CNc2nc3c(-c4ccccc4)nnn3c3ccccc23)cc1 1.06%, CC1CCCc2sc3nc(SCC(=O)c4ccc(Br)cc4)nc(N)c3c21 (stereo not drawn) -2.49%, Cc1cc(C)cc(OCC(=O)Nc2c(C)ccc3nsnc23)c1 -1.87%, COc1ccc(S(=O)(=O)c2cnc3ccc(Cl)cc3c2N2CCCCC2C)cc1 (stereo not drawn) -8%, Cc1ccccc1NC(=O)CSc1nc2nccnc2c(=O)n1CCc1c[nH]c2ccccc12 -3.39%, CCOc1ccc(N(CC)S(=O)(=O)c2cc(Br)cc3c2N(C(C)=O)C(C)C3)cc1 (stereo not drawn) 9.36%, COc1ccc(NC(=O)CSc2nc(-c3ccco3)cc(C(F)(F)F)n2)cc1OC -17.2%, Cc1cccc(N2CCN(C(=O)Cn3nc(C)n4cccc4c3=O)CC2C)c1 (stereo not drawn) -10.7%, CN(Cc1ccccc1)S(=O)(=O)c1nnc(NC(=O)c2cccc(Cl)c2)s1 9.1%, CCCCN(C)CCCNC(=O)Cn1ncc2c3ccccc3n(Cc3ccccc3)c2c1=O -1.56%, Cc1cccc(NC(=O)CSc2nccn2Cc2ccc(F)cc2)c1C -4%, CCOc1ccccc1CN1CCN(S(=O)(=O)c2ccccc2)CC1 2.82%, CCOC(=O)c1c(-c2ccccc2)oc2ccc(NS(=O)(=O)c3cc(C)c(C)cc3C)cc12 -0.828%, Cc1ccc(C(=O)Nc2cc3c(cc2C)n(C)c(=O)c(=O)n3C)cc1 0.966%, Cc1ccccc1NC(=O)c1ccc2c(c1)c(C)c(C)n2Cc1ccccc1 -29.5%, O=C(CN1N=C(c2ccc(Cl)cc2)CCC1=O)NCCc1ccc(Cl)cc1 0.0455%, COc1ccc(S(=O)(=O)N2CCCN(CC(=O)Nc3ccc(NC(C)=O)cc3)CC2)cc1 -0.834%, COCc1nc2ccccc2n1CCOc1cccc(C)c1 -1.66%, CC(=O)c1cccc(NC(=O)c2oc3c(c2C)-c2nn(Cc4ccc(Cl)cc4)cc2CC3)c1 4%, COc1ccccc1NC(=O)CSC1=Nc2ccccc2C2=NC(CC(=O)NCc3ccco3)C(=O)N12 (stereo not drawn) 1.01%, CCc1ccc(-n2nc(C)c3c(C)cc(=O)n(Cc4nc(-c5ccccc5)oc4C)c32)cc1 -10.9%, Cc1ccc(NC(=O)CN2C(=O)CCc3cc(S(=O)(=O)N4CCOCC4)ccc32)cc1F 16.9%, Cc1cccc(CNC(=O)CCn2c(=O)c3cccn3c3ccc(F)cc32)c1 -7.41%, COc1ccc(NC(=O)c2oc3ccc(S(=O)(=O)N4CCCCC4)cc3c2C)cc1 -12.8%, CCOc1ccc(CNC(=O)C2Cc3ccccc3N2C(=O)CC)cc1OC (stereo not drawn) 0%, CCCc1nn2c(=O)cc(COC(=O)c3ccccc3NC(=O)COc3ccccc3F)nc2s1 0.335%, Cc1nc2c(C(=O)NCCCN(CC(C)C)CC(C)C)cnn2c(C)c1Cc1c(F)cccc1Cl 4.88%, CCCOC(=O)c1c(NC(=O)c2nc3ncccn3n2)sc(C(N)=O)c1C 8.15%, COc1cccc(CNCCNC(=O)c2nonc2N)c1 4.81%, O=C(NCc1ccccc1Cl)c1cc2c(s1)-c1ccc(Cl)cc1SC2 -4.84%, CCSc1nc2c([nH]c3ccccc32)c(=O)n1CC 2.36%, Cc1cccc(NS(=O)(=O)c2c(C)nc3sccn3c2=O)c1C -1.52%, CCOC(=O)CSc1nc(-c2ccc(C)cc2C)cc(-c2ccccc2)c1C#N 3.4%, CCOc1ccccc1NC(=O)N1CC(CC)Oc2ccccc21 (stereo not drawn) 12.3%, Cc1ccc(C(=O)CSc2nc(-c3ccccc3)nc3c2CCCC3)cc1 3.56%, CC(C)(C)C(=O)Nc1cccc(-c2cn3cccnc3n2)c1 -2.19%, COc1cccc(-n2c(=O)c3c(C)c(C)sc3n(CC(=O)NCc3ccc(C)cc3)c2=O)c1 -18.9%, Cc1cccc(CSc2ncc(Cl)c(C(=O)Nc3sc4c(c3C(N)=O)CCCC4)n2)c1 -6.07%, O=C(Cn1c(=O)nc(-c2ccccc2)c2ccccc21)Nc1cccc(C(F)(F)F)c1 5.48%, Cc1c(C(=O)NCc2cccc(Cl)c2)sc2ncnc(N(C)C3CCCCC3)c12 -5.3%, COc1ccc(-c2cn(-c3ccc(C)cc3)c(S(=O)(=O)CC(=O)Nc3ccc(F)cc3)n2)cc1 -2.73%, COc1ccccc1NC(=O)c1cc(=O)c2ccc(C)c(C)c2o1 -6.57%, CCOC(=O)c1ccc2c(c1)N(CC(=O)N(C)c1ccccc1)C(=O)c1ccccc1S2 -1.21%, Cc1ccc(Cc2c(C)nc3nc(SCC(=O)NC4CCC(C)CC4)nn3c2C)cc1 (stereo not drawn) 0%, CCOc1ccc(CCNC(=O)c2cc3c(=O)oc4ccc(C)cc4c3s2)cc1OCC 6.97%, N#C/C(=C\c1ccc(-c2ccc(C(=O)O)cc2)o1)C(=O)Nc1ccccc1C(=O)O 7.31%, Cc1nn(CCC(=O)Nc2cc(F)ccc2F)c(=O)c2nn(-c3ccccc3)c(C)c12 -0.137%, O=C(CC1N=C2c3ccccc3N=C(SCc3cccc(Cl)c3)N2C1=O)NCc1ccc2c(c1)OCO2 (stereo not drawn) 0.136%, CC1CCCCN1C(=O)CSc1n[nH]c(-c2ccccc2Cl)n1 (stereo not drawn) 2.36%, COc1cc(Nc2nc(SCC(=O)c3ccc(Br)cc3)nc3ccccc23)cc(OC)c1 -18.4%, Cc1ccccc1NC(=O)CSc1nnc(COc2ccc(Cl)cc2)o1 -9.38%, CCOCCn1ccc2c(OCC(=O)NCc3ccc(C)cc3)cccc2c1=O -5.28%, CCCSc1ncc(Cl)c(C(=O)NCc2ccc(OC)cc2)n1 -4.74%, CN(C)CCNC(=O)c1ccc2c(c1)N(Cc1ccccc1)C(=O)c1ccccc1S2(=O)=O -0.45%, COc1ccc(-c2cn3nc(N4CCCC(C(=O)Nc5cccc(Cl)c5C)C4)sc3n2)cc1 (stereo not drawn) 4.22%, O=C1c2[nH]nc(-c3ccccc3O)c2C(c2cccc(O)c2)N1Cc1ccncc1 (stereo not drawn) -1.64%, O=C(Cn1cc(C(=O)c2ccncc2)c(=O)c2cc(F)ccc21)Nc1ccc(Cl)cc1 -0.516%, COCCCNC(=O)N1[C@H](c2cccs2)[C@@H](C)C(=O)[C@@H](C)[C@@H]1c1cccs1 2.56%, COc1cccc(-n2cc(C(=O)OCc3ccc(F)c(F)c3)c3ccccc3c2=O)c1 -9%, Cc1ccc2c(c1)N(S(=O)(=O)c1cc(-c3onc(C)c3C)ccc1C)CCO2 -28%, O=C(CN1C(=O)COc2ccc(S(=O)(=O)N3CCCC3)cc21)N1CCN(c2ccc(Cl)cc2)CC1 -2.34%, Cc1ccc(O)c(NC(=O)c2noc3c2CCCC3)c1 -1.44%, COc1ccccc1CNC(=O)CCn1c(=O)c2ccccc2n(CC(=O)Nc2ccc(Br)cc2F)c1=O -7.65%, O=C(Nc1ccc(F)c(Cl)c1)C1CCN(S(=O)(=O)c2ccc3[nH]c(=O)ccc3c2)CC1 -10.7%, Cc1ccc(C(=O)Nc2nc3n(n2)C(c2ccc(F)cc2)C=C(c2ccccc2)N3)cc1 (stereo not drawn) -7.2%, CCOC(=O)c1c(NC(=O)c2ccc(Br)cc2)sc2c1CCCC2 -1.06%, Cc1nn(C)c2c1c(C(F)(F)F)cc(=O)n2CC(=O)N1CCCCC1 0%, Cc1ccc2nc(-c3cccc(NC(=O)c4ccc(Br)o4)c3)oc2c1 2.54%, CCOc1ccccc1-n1nnc(-c2nc(-c3ccccc3C)no2)c1C 5.55%, COc1ccc(C(=O)Nc2nnc(S(=O)(=O)N3CCCc4ccccc43)s2)cc1 -11%, Cc1ccc(NC(=O)CSc2ccc3nnc(CCNS(=O)(=O)c4ccccc4)n3n2)cc1Cl -0.983%, Cc1ccc(Cl)cc1NC(=O)N1CCC(CN2CCCCCC2)CC1 -5.11%, Cc1ccccc1NC(=O)c1cccc2c(=O)c3c([nH]c12)CCCC3 -7.45%, CCCCC(=O)OCc1cc(=O)n2nc(C3CCCCC3)sc2n1 3.47%, CCC1CN(C(=O)Nc2cc(C)ccc2OC)c2cc(Cl)ccc2O1 (stereo not drawn) -0.857%, COc1ccccc1NCc1cccn1-c1nnc(N2CCCCCC2)s1 -0.843%, Cc1cc(C)n(-c2nc3ccccc3nc2Nc2ccc(Cl)c(Cl)c2)n1 0.843%, COC(=O)c1ccc(NC(=O)CC2Nc3cc(C)c(C)cc3NC2=O)cc1 (stereo not drawn) -7.9%, Cc1cccc(OCC(=O)Nc2c(C(=O)N3CCN(c4ccccc4F)CC3)oc3ccccc23)c1 -3.55%, CCOc1ccc(S(=O)(=O)Nc2ccc3oc(C)c(C(=O)OC(C)C)c3c2)cc1 -22.9%, Cc1cc(C)cc(OCC(=O)NC(Cc2c[nH]c3ccccc23)C(=O)O)c1 (stereo not drawn) 10.3%, Cc1ccc(NC(=O)N2CCc3cc(S(=O)(=O)N4CCC(C)CC4)ccc32)cc1F -1.94%, CCOC(=O)c1ccc(N2C(=O)c3[nH]nc(-c4ccc(OC)cc4)c3C2c2ccccc2Cl)cc1 (stereo not drawn) 2.33%
